Results: PubChem BioAssay (Tox21)
Results filed as inconclusive are left out. Unless noted, calls come from the whole dose curve. A structure can be active in one record and inactive in another. For part of its entries the source gives two or more results. The other results are left out here. There may be further records. Values that stand side by side are repeated measurements (runs, samples, wells, individuals or studies). Records carry a tag for their origin. A, B and so on number the origins entry by entry.

How the values were obtained:
[1] = p53 small molecule agonists, cell-based qHTS assay with rat liver microsomes (AID 1963578)
Outline: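 p53RE-bla cells were exposed to compounds together with rat liver microsomes (0.5 mg/mL final) and NADPH (0.5 mg/mL final) for 16 h at 37 C, then read by LiveBLAzer beta-lactamase fluorescence after 2 h at room temperature.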

[2] = cAMP Responsive Elements (CRE) small molecule antagonists, cell-based qHTS assay (AID 1963591; active = well fitted inhibition curve with a large enough effect in the signal ratio in the repeat runs, not every such curve was filed as active; the % refers to the signal ratio)
From the text: U.S. Tox21 Program National Center for Advancing Translational Sciences [NCATS] Division of Preclinical Innovation [DPI] U.S. Environmental Protection Agency [EPA] National Institutes of Environmental Health Sciences [NIEHS] National Toxicology Program [NTP] U.S. Food and Drug Administration [FDA] Tox21 Assay Overview: CREB (cyclic-AMP Responsive Element Binding Protein) is a cellular transcription factor. It binds to certain DNA sequences called cAMP Responsive Elements (CRE) and regulates the transcription of the genes. […] This cell line can be used to find agonists/antagonists of the cyclic AMP signaling pathway. The activation of the report gene under culture conditions can be detected by fluorescence intensity. This cell line has been used to screen the Tox21 10K compound library to […].
Tox21 Assay Protocol Summary: CRE-bla Hek 293T cells were suspended in assay medium (DMEM containing 10% dialyzed FBS, 0.1 mM NEAA, 1 mM sodium pyruvate and 25 mM HEPES) and dispensed at 2,000 cells/4 uL /well into 1536-well black wall/clear bottom plates using a Multidrop Combi (ThermoFisher Scientific, Waltham, MA) dispenser. […]
Potency is the fitted concentration of half-maximal effect.

In the case of `C1=Cc2cccc3cccc1c23`, the Potency [1] was “active: 35.7 µM [sample A] and inactive [sample B]”.
For `CCOS(=O)(=O)OCC`, the Potency [1] was “active: 23 µM [sample A] and inactive [sample B]”.
For `OC(c1ccc(Cl)cc1)(c1cncnc1)c1ccccc1Cl` (stereo not drawn), the Potency [2] was “active: 55.4 µM [sample A] and inactive [sample B]”.
